This is one part of the list. Most values come without repeats; read them as rough.
Assays:
NCI-H460 [1] = test: cell-surface PD-L1 MFI ratio relative to radiation alone (isotype-subtracted); higher = higher PD-L1 surface expression; conditions: inducer: radiation 8 Gy; 10 µM; 24 h
Procedure: (§1)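 A549 and H460 NSCLC cells were treated with each library drug at 10 uM, then with radiation (8 Gy) or cisplatin (4 uM), and incubated for 24 h. Cell-surface PD-L1 was measured by flow cytometry as an MFI ratio: (MFI drug+inducer - MFI isotype)/(MFI inducer alone - MFI isotype). Hits were defined as ratio < 0.75.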

A549 = test: cell-surface PD-L1 MFI ratio relative to cisplatin alone (isotype-subtracted); higher = higher PD-L1 surface expression; conditions: inducer: cisplatin 4 uM; 10 µM; 24 h
Procedure: as §1

NCI-H460 [2] = test: as above; conditions: inducer: cisplatin 4 uM; 10 µM; 24 h
Procedure: as §1
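Wherever cell-surface PD-L1 MFI ratio relative to radiation alone (isotype-subtracted) is given: surface PD-L1 on NSCLC cells stained with a PE-labelled anti-human PD-L1 antibody before flow cytometry, screening a library of roughly two hundred mostly kinase and epigenetic inhibitors.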

SMILES	cell-surface PD-L1 MFI ratio (NCI-H460 [1])	cell-surface PD-L1 MFI ratio (A549)	cell-surface PD-L1 MFI ratio (NCI-H460 [2])
CC1(C)C(=O)N(CCN2CCC(C(=O)c3ccc(F)cc3)CC2)c2ccccc21	inactive: 1.15	inactive: 0.971	inactive: 1.37
CNC(=O)c1cc(Oc2ccc3nc(N[C@@H]4CCCC[C@H]4O)sc3c2)ccn1	inactive: 1.19	inactive: 1.05	inactive: 1.39
NC1(c2ccc(-c3nc4ccn5c(=O)[nH]nc5c4cc3-c3ccccc3)cc2)CCC1	inactive: 1.42	inactive: 0.923	inactive: 1.19
Cc1ccc(C(=O)Nc2cccc(C(F)(F)F)c2)cc1Nc1nc(-c2cccnc2)nc2c1cnn2C	inactive: 1.04	inactive: 1.22	inactive: 0.984
CCc1cncnc1N1CCN(Cc2nc3ccc(C(F)(F)F)cc3[nH]2)CC1	inactive: 1.01	inactive: 1.26	inactive: 1.43
CC(C)N1CCN(Cc2cnc(-c3cc(-c4cccc5[nH]ccc45)cc4[nH]ncc34)o2)CC1	inactive: 1.23		inactive: 1.06
CN(CC(=O)N(Cc1ccc(C2CCCCC2)cc1)c1ccc(C(=O)O)cc1)S(=O)(=O)c1c(F)c(F)c(F)c(F)c1F	inactive: 1.35		inactive: 1.02
O=C(NC[C@H](O)CN1CCc2ccccc2C1)c1cc(NC2COC2)ncn1	inactive: 1.02		inactive: 0.92
COc1ccc(CCc2nc3cc(-c4c(C)noc4C)ccc3n2C[C@H](C)N2CCOCC2)cc1Cl	inactive: 0.923		inactive: 0.848
CS(=O)(=O)c1ccc(C(=O)Nc2ccc(Cl)c(-c3ccccn3)c2)c(Cl)c1 [Vismodegib (GDC-0449)]	inactive: 1.45		inactive: 1.14
O=S(=O)(c1cccc2c(I)cccc12)N1CCCNCC1	inactive: 0.988		active: 0.626
COc1cc2nccc(Oc3ccc(NC(=O)C4(C(=O)Nc5ccc(F)cc5)CC4)cc3)c2cc1OC [Cabozantinib]	inactive: 1.21	inactive: 0.817	inactive: 1.06
CO[C@H]1C[C@@H]2CC[C@@H](C)[C@@](O)(O2)C(=O)C(=O)N2CCCC[C@H]2C(=O)O[C@H]([C@H](C)C[C@@H]2CC[C@@H](O)[C@H](OC)C2)CC(=O)[C@H](C)/C=C(\C)[C@@H](O)[C@@H](OC)C(=O)[C@H](C)C[C@H](C)/C=C/C=C/C=C/1C [Rapamycin (Sirolimus)]	inactive: 1.1		inactive: 1.19

Reference: the supplement of paper PMC8792480
